# Measured values taken from PubChem BioAssay AID1508624 (National Center for Advancing Translational Sciences (NCATS), 2021).
# The campaign covered roughly 48,000 compounds. About 120 (0.25%) were called active. The shares of active, inactive and inconclusive entries below differ from those in the screen. Calls follow the shape of the dose curve; as a rule, active = well fitted activation curve with a large enough effect; inconclusive = small, poorly fitted or top-dose-only effect, or another doubt; inactive = no such curve, though single readings can be large or run the other way. A potency beside an inconclusive call is a rough fit, not a confirmed value.
# Experiment: Primary qHTS for Identification of Small Molecule Activators of Huntingtin-Antisense Promoter Activity; also: nearly all actives have a fitted effect of over 55% in size
# Settings: HEK293 HTT-AS promoter firefly luciferase reporter, 24 h; activity change, positive = activation: at 57.5 µM (top of the series), percent change from vehicle, -100% = no light
# How it was run: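 HEK293 cells carrying firefly luciferase reporters were seeded at 2,500 per well in Opti-MEM and cultured for 24 h. They were then treated with compounds at up to 57.5 uM final for 24 h at 37 degrees C before Dual-Glo luminescence readout.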
# Potency is read from the fitted curve at half-maximal effect; tags tell the direction and shape of the fitted curve.
Structure (SMILES),"activity change, positive = activation",Potency
CCOc1ccccc1NC(=O)C1CCC(CNS(=O)(=O)c2ccc3c(c2)CCCC(=O)N3)CC1 (stereo not given),inactive: -16.6%,
CN(C)CCNC(=O)c1ccc(Cn2c(SCc3ccc(F)cc3)nc3cccnc32)cc1,,"inconclusive: 15.8 µM [activator, partial curve, poor fit]"
COc1ccc(C(=O)Nc2cccc(-c3cn4ccsc4n3)c2)c(OC)c1,,"inconclusive: 8.91 µM [activator, partial curve, poor fit]"
CC1CCN(C(=O)Cn2c(=O)n(CCCCCC(=O)NCc3ccccc3Cl)c(=O)c3sccc32)CC1,inconclusive: 29% [activator],
CC(=O)Nc1cc(-c2nc3cc(Cl)ccc3o2)ccc1C,,"inconclusive: 12.6 µM [activator, partial curve, poor fit]"
CCc1ccc(NS(=O)(=O)c2ccc3oc(=O)c4ncn(CC)c4c3c2)cc1,inactive: -33.3%,
CC=C1NC(=O)[C@H]2CSSCCC=C[C@H](CC(=O)N[C@H](C(C)C)C(=O)N2)OC(=O)[C@H](C(C)C)NC1=O,,"inconclusive: 0.193 µM [activator, full curve]"
COC(=O)c1c(-c2cccs2)csc1NC(=O)c1ccc(Br)cc1,,"inconclusive: 20 µM [activator, partial curve]"
COC(=O)c1c(-c2cccs2)csc1NC(=O)c1cccc(Cl)c1,,"inconclusive: 10 µM [activator, partial curve]"
Cc1nn2c(-c3ccco3)ccnc2c1-c1ccc(Br)cc1,,"inconclusive: 1.78 µM [activator, full curve, poor fit]"
Cc1ccc(-c2cc(N)n(-c3ccc(C)cc3)n2)cc1,,"inconclusive: 5.01 µM [activator, partial curve]"
O=C(Nc1ccc(-c2nc3cc(NC(=O)c4ccc(F)cc4)ccc3o2)cc1)c1ccc(F)cc1,inconclusive: 31.2% [activator],
CC(C)CCn1nnc2sc(-c3ccccc3)cc2c1=O,,"inconclusive: 2.51 µM [activator, full curve]"
N#Cc1c(-n2ncnc2-c2cccc(Br)c2)sc2c1CCCCC2,inactive: -13.2%,
O=C(Nc1cccc(C(=O)N2CCN(c3cccc(Cl)c3)CC2)c1)c1nsc2ccccc12,,"inconclusive: 1 µM [activator, partial curve, poor fit]"
CCOC(=O)C1CCN(C(=O)c2ccc(NC(=O)c3nsc4ccccc34)cc2)CC1,,"inconclusive: 1.58 µM [activator, partial curve, poor fit]"
COCCCN1C(=O)c2[nH]nc(-c3ccccc3O)c2C1c1ccc(OCc2ccccc2)cc1 (stereo not given),inactive: -33.9%,
Cc1nc(NC(=O)c2c(-c3ccccc3)c(-c3ccccc3)nn(C)c2=O)sc1C,,"inconclusive: 17.8 µM [activator, single point]"
CC(C(=O)O)c1ccc(C(=O)c2ccccc2)s1 (stereo not given),,"inconclusive: 20 µM [activator, partial curve]"
COc1ccc(-c2noc(-c3ccc(C)cc3Cl)n2)cc1OC,,"inconclusive: 1.78 µM [activator, partial curve, poor fit]"
CS(=O)(=O)n1nc(-c2ccco2)nc1NCc1ccccc1Cl,,"inconclusive: 5.01 µM [activator, partial curve, poor fit]"
CCOC(=O)c1[nH]c(C)c(C(=O)NCc2cccc(OC)c2)c1C,inactive: -16.3%,
O=C(Nc1cc2ccc(O)cc2oc1=O)c1ccccc1,,"inconclusive: 1.78 µM [activator, partial curve, poor fit]"
Cc1ccc(NC(=O)c2ncoc2-c2ccco2)cc1Cl,,"inconclusive: 15.8 µM [activator, partial curve, poor fit]"
CCOc1ccc(NC(=O)CC2C(=O)N(c3ccc(C)cc3)C(=O)N2C2CCCCC2)cc1 (stereo not given),,"inconclusive: 4.47 µM [activator, partial curve]"
Cc1cc(O)c2c(O)c3c(O)cccc3cc2c1,inactive: -12.9%,
COC(=O)c1ccc(C2C=C(c3ccc(Cl)cc3)Nc3nc4ccccc4n32)cc1 (stereo not given),,"inconclusive: 2.82 µM [activator, partial curve, poor fit]"

Structure (SMILES),"activity change, positive = activation",Potency
Cc1ccc(-n2nc3cc(C)c(NC(=O)COc4ccccc4)cc3n2)cc1,,"inconclusive: 0.355 µM [activator, full curve, poor fit]"
Cc1coc2cc3oc(=O)c(CC(=O)N4CCCCC4)c(C)c3cc12,inactive: -5.44%,
Cc1ccc(C2=Nc3ccccc3N(CC(=O)Nc3cccc(F)c3)C(=O)C2)cc1C,,"inconclusive: 2.24 µM [activator, full curve, poor fit]"
CC(=O)c1ccc(NC(=O)c2ncn(-c3ccccc3)n2)cc1,,"inconclusive: 39.8 µM [activator, single point]"
Cc1cccc(NC(=O)CSc2nc3ccc(NC(=O)c4cccs4)cc3s2)c1,inactive: -12.7%,
COc1ccc(OCC(=O)Nc2cc(-c3cccc(Cl)c3)nn2-c2ccccc2)cc1,,"inconclusive: 15.8 µM [activator, partial curve]"
CCN(CC)CCN(C(=O)c1ccco1)c1nc2c(C)cccc2s1,,"inconclusive: 25.1 µM [activator, partial curve]"
CCCNc1ccc(-c2nc(-c3ccccn3)no2)cc1[N+](=O)[O-],,"inconclusive: 0.199 µM [activator, full curve, poor fit]"
COc1ccc(-n2ncc3c(NC4CCCC4)ncnc32)cc1,,"inconclusive: 0.178 µM [activator, full curve, poor fit]"
Cc1ccc(SCC(=O)Nc2ccc3oc(-c4ccccc4C)nc3c2)cc1,,"inconclusive: 2.24 µM [activator, full curve]"
Cc1cc(C)cc(NC(=O)c2cc(CN3CCCC3)on2)c1,,"inconclusive: 12.6 µM [activator, partial curve]"
Cc1ccccc1Nc1c(-c2ccc(N3CCOCC3)cc2)nc2ccccn12,,"inconclusive: 0.891 µM [activator, partial curve, poor fit]"
COCc1nn2cc(-c3ccc(C)cc3)nc2s1,,"inconclusive: 0.178 µM [activator, full curve, poor fit]"
CC(=O)c1ccc(N2CCN(C(=O)C3CCN(S(=O)(=O)c4c(C)noc4/C=C/c4ccc(C)cc4)CC3)CC2)cc1,inactive: -35%,
O=C(Nc1nc2c(s1)CCCCCC2)Nc1ccc(F)cc1F,,"inconclusive: 1.41 µM [activator, full curve, poor fit]"
CC(C)c1ccc(NC(=O)c2ccc(F)c(S(=O)(=O)N3CCc4ccccc43)c2)cc1,inactive: -29.3%,
CSc1cccc(NC(=O)c2cccc(N3CCCS3(=O)=O)c2)c1,inconclusive: 32.9% [activator],
CCN(CC)c1nc2c(-c3cccc(Br)c3)nnn2c2ccccc12,,"inconclusive: 8.91 µM [activator, partial curve]"
NC[C@@H]1O[C@@H](O[C@H]2[C@@H](O)[C@H](O[C@@H]3[C@@H](O)[C@@H](N)C[C@H](N)[C@H]3O[C@H]3O[C@H](CN)[C@@H](O)[C@@H](O)[C@H]3N)O[C@H]2CO)[C@H](N)[C@@H](O)[C@@H]1O,,"inconclusive: 30.6 µM [activator, single point]"
Cc1ccc(Nc2c(-c3ccc(N(C)C)cc3)nc3nc[nH]n23)cc1,,"inconclusive: 22.4 µM [activator, partial curve, poor fit]"
O=C(NCCc1ccccc1Cl)c1ccc2c(c1)nc1n2CCOC1,,"inconclusive: 1 µM [activator, partial curve, poor fit]"
COc1cc(OC)cc(-c2nc3nc(C)c(CCC(=O)Nc4ccc(F)cc4F)c(C)n3n2)c1,inactive: -14.3%,
CCCCCSc1nnc(-c2ccc(Br)cc2)o1,,"inconclusive: 28.2 µM [activator, partial curve, poor fit]"
CCC1CN(C(=O)NCc2ccc(C)cc2)c2ccccc2O1 (stereo not given),inactive: -15.7%,
Cn1c(=O)c2c(SCC(=O)Nc3ccccc3C(F)(F)F)nc(C3CCCC3)nc2n(C)c1=O,inconclusive: -20.5% [activator],
CCOc1ccccc1NC(=O)c1ccc2c(Cl)c3c(nc2c1)CCC3,,"inconclusive: 2 µM [activator, full curve, poor fit]"
Cc1nnc(N2CCC(C(=O)N3CCCCC3)CC2)c2nn(-c3ccc(Cl)cc3)c(C)c12,inactive: -8.34%,

Structure (SMILES),"activity change, positive = activation",Potency
CCOC(=O)c1ccc(NC(=O)/C(C#N)=C/c2ccc(OC)cc2)cc1,inactive: 8.39%,
Cc1ccc(-n2cc(-c3ccccc3)nc2S(=O)(=O)CC(=O)Nc2ccc(F)cc2)cc1,,active: 3.16 µM
CCOc1ccc(C2=NC(c3ccc(OC)cc3)=Nc3ccc(Cl)cc3N2)cc1,,"inconclusive: 12.6 µM [activator, partial curve]"
Cc1nc(Nc2ccc(Cl)cc2)cc(-c2ccccc2)n1,,"inconclusive: 15.8 µM [activator, partial curve, poor fit]"
Cc1ccn2c(Nc3ccc4c(c3)OCO4)c(-c3ccc(N(C)C)cc3)nc2c1,,"inconclusive: 1 µM [activator, partial curve, poor fit]"
Cn1ccc2cc3c(cc21)CCN3C(=O)Nc1cccnc1,,"inconclusive: 15.8 µM [activator, single point]"
Cc1ccc(-c2nc3c4ccccc4[nH]c(=O)n3n2)cc1,,"inconclusive: 1.78 µM [activator, full curve, poor fit]"
CCCCSc1nnc2c(n1)OC(c1ccc(Br)s1)N(C(C)=O)c1ccccc1-2 (stereo not given),,"inconclusive: 0.178 µM [activator, partial curve, poor fit]"
COc1cccc(C(=O)Nc2cccc(OCc3cc(=O)n4c5c(sc4n3)CCCC5)c2)c1,,"inconclusive: 10 µM [activator, partial curve]"
COc1cccc(NC(=O)C(=O)NCC(c2ccc3c(c2)OCO3)N2CCN(C)CC2)c1 (stereo not given),,"inconclusive: 7.08 µM [activator, partial curve]"
CCCC(=O)Nc1ccc(O)c(C(C)=O)c1,inactive: -2.94%,
CCCN(C(=O)c1cc2ccc3cccnc3c2[nH]1)c1ccc(F)cc1,,"inconclusive: 5.01 µM [activator, partial curve, poor fit]"
Cc1cc2nn(-c3ccccc3)nc2cc1NC(=O)COc1ccc(Cl)cc1,,"inconclusive: 0.891 µM [activator, full curve]"
COc1cccc(-c2cc(C(=O)Nc3ccc(F)cc3)[nH]n2)c1,,"inconclusive: 1.41 µM [activator, partial curve, poor fit]"
CCOc1ccc2nc(N3CCCC(C(=O)NCc4ccc(C)cc4)C3)sc2c1 (stereo not given),,"inconclusive: 2 µM [activator, full curve, poor fit]"
CCc1ccc(OCC(=O)Nc2ccc(Cl)c(-c3nc4ncccc4o3)c2)cc1,,"inconclusive: 28.2 µM [activator, partial curve, poor fit]"
CC(C)(C)NC(=O)CCSc1nc(-c2ccc3c(c2)OCO3)cc(C(F)(F)F)n1,inconclusive: -6.64% [activator],
CCN(CC)C(=O)C1=CC(c2ccc3c(c2)OCO3)=NS(=O)(=O)N1C,inactive: -11.4%,
COc1ccc(NC(=O)C2=C(C)Nc3ncnn3C2c2ccccn2)cc1 (stereo not given),inconclusive: -47.8% [activator],
Fc1ccc(NCc2ccccc2-c2nnc(-c3ccccc3Cl)o2)cc1Cl,,"inconclusive: 15.8 µM [activator, single point]"
CC(=O)c1ccc(NS(=O)(=O)c2ccc3[nH]c(=O)[nH]c3c2)cc1,,"inconclusive: 11.2 µM [activator, partial curve, poor fit]"
Cc1ccc(NC(=O)CSc2nnc(NC(=O)NC3CCCCC3)s2)cc1,,"inconclusive: 2.24 µM [activator, full curve, poor fit]"
COc1ccc(NC(=O)c2cc(C(C)=O)n3ccccc23)cc1Cl,inconclusive: 4.92% [activator],
COc1ccc(OC)c(-c2nnc3n(CCc4ccccc4)c(=O)c4ccccc4n23)c1,,"inconclusive: 35.5 µM [activator, partial curve, poor fit]"
O=C(NCc1ccccc1F)c1cc2ccccn2n1,,"inconclusive: 14.1 µM [activator, partial curve, poor fit]"
CCCC(=O)Nc1nc2c(s1)CC(C(C)(C)C)CC2 (stereo not given),,"inconclusive: 1.26 µM [activator, partial curve, poor fit]"
